# In the supplement of paper PMC8728848:
# Some of the results follow.
# B1: Pwp5 ND (Candida glabrata) (protein)
# chain: MGSSHHHHHHSSGLVPRGSHMASANPVPLTNVCYFPEEYPRQAGFRAITAGLASTILQGSVDELLNYSGLSSLTTQQTTTTTPNFQLPTLPLPTNVYGLTVVPLYLLVQLQGYFVPPVSGQYTFSLENTNDAAIIFFGNPSAFPCGDLSAWPQASADDITVTDGTFPSRTLFLKAGVAYPMRISYYNSLGSGNLAVSFTDPGGTKRTNWNGYIWRYNSCSTCTYT
# Columns and labels:
# Test in all cases: glycan array binding signal (z-score within array); higher = stronger binding
# Settings in all cases: glycan notation: IUPAC condensed, linker removed
# [1] = target: Fuc(a1-2)Gal(b1-4)[Fuc(a1-3)]GlcNAc(b1-2)Man(a1-3)[Fuc(a1-2)Gal(b1-4)[Fuc(a1-3)]GlcNAc(b1-2)Man(a1-6)]Man(b1-4)GlcNAc(b1-4)[Fuc(a1-6)]GlcNAc
# Summary of the method: (§1)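 Negative Z-scores can be read as non-binding. The Z-score is calculated within each array and then averaged across arrays of one protein sequence at different concentrations or buffers and across linkers. Arrays, 3228 in all, were curated from the Consortium for Functional Glycomics database and kept only where the protein sequence was available.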
# [2] = target: Fuc(a1-2)Gal(b1-4)[Fuc(a1-3)]GlcNAc(b1-2)[Fuc(a1-2)Gal(b1-4)[Fuc(a1-3)]GlcNAc(b1-4)]Man(a1-3)[Fuc(a1-2)Gal(b1-4)[Fuc(a1-3)]GlcNAc(b1-2)Man(a1-6)]Man(b1-4)GlcNAc(b1-4)GlcNAc
# Summary of the method: as §1
# [3] = target: Fuc(a1-2)Gal(b1-4)[Fuc(a1-3)]GlcNAc(b1-3)Gal(b1-4)[Fuc(a1-3)]GlcNAc
# Summary of the method: as §1
# [4] = target: Fuc(a1-2)Gal(b1-4)[Fuc(a1-3)]GlcNAc(b1-3)Gal(b1-4)[Fuc(a1-3)]GlcNAc(b1-3)Gal(b1-4)[Fuc(a1-3)]GlcNAc
# Summary of the method: as §1
# [5] = target: Fuc(a1-2)Gal(b1-4)[Fuc(a1-3)]GlcNAc(b1-3)GalNAc
# Summary of the method: as §1
# [6] = target: Fuc(a1-2)Gal(b1-4)[Fuc(a1-3)]GlcNAc(b1-3)[Neu5Ac(a2-6)Gal(b1-4)GlcNAc(b1-6)]Gal(b1-4)Glc
# Summary of the method: as §1
# [7] = target: Fuc(a1-2)Gal3S(b1-4)GlcNAc
# Summary of the method: as §1
# [8] = target: Fuc(a1-2)Gal6S(b1-3)GlcNAc
# Summary of the method: as §1
# [9] = target: Fuc(a1-2)Gal6S(b1-3)GlcNAc6S
# Summary of the method: as §1
# [10] = target: Fuc(a1-2)Gal6S(b1-4)Glc
# Summary of the method: as §1
# [11] = target: Fuc(a1-2)Gal6S(b1-4)Glc6S
# Summary of the method: as §1
# [12] = target: Fuc(a1-2)[Gal(a1-3)]Gal
# Summary of the method: as §1
# [13] = target: Fuc(a1-2)[Gal(a1-3)]Gal(b1-3)GalNAc
# Summary of the method: as §1
# [14] = target: Fuc(a1-2)[Gal(a1-3)]Gal(b1-3)GalNAc(b1-3)Gal(a1-4)Gal(b1-4)Glc
# Summary of the method: as §1
# [15] = target: Fuc(a1-2)[Gal(a1-3)]Gal(b1-3)GlcNAc
# Summary of the method: as §1
# [16] = target: Fuc(a1-2)[Gal(a1-3)]Gal(b1-3)GlcNAc(b1-2)Man(a1-3)[Fuc(a1-2)[Gal(a1-3)]Gal(b1-3)GlcNAc(b1-2)Man(a1-6)]Man(b1-4)GlcNAc(b1-4)GlcNAc
# Summary of the method: as §1
# [17] = target: Fuc(a1-2)[Gal(a1-3)]Gal(b1-3)GlcNAc(b1-2)Man(a1-3)[Fuc(a1-2)[Gal(a1-3)]Gal(b1-3)GlcNAc(b1-2)Man(a1-6)]Man(b1-4)GlcNAc(b1-4)[Fuc(a1-6)]GlcNAc
# Summary of the method: as §1
# [18] = target: Fuc(a1-2)[Gal(a1-3)]Gal(b1-3)GlcNAc(b1-3)GalNAc
# Summary of the method: as §1
# [19] = target: Fuc(a1-2)[Gal(a1-3)]Gal(b1-3)GlcNAc(b1-6)GalNAc
# Summary of the method: as §1
# [20] = target: Fuc(a1-2)[Gal(a1-3)]Gal(b1-4)Glc
# Summary of the method: as §1
# [21] = target: Fuc(a1-2)[Gal(a1-3)]Gal(b1-4)GlcNAc
# Summary of the method: as §1
# [22] = target: Fuc(a1-2)[Gal(a1-3)]Gal(b1-4)GlcNAc(b1-2)Man
# Summary of the method: as §1
# [23] = target: Fuc(a1-2)[Gal(a1-3)]Gal(b1-4)GlcNAc(b1-2)Man(a1-3)[Fuc(a1-2)[Gal(a1-3)]Gal(b1-4)GlcNAc(b1-2)Man(a1-6)]Man(b1-4)GlcNAc(b1-4)GlcNAc
# Summary of the method: as §1
# [24] = target: Fuc(a1-2)[Gal(a1-3)]Gal(b1-4)GlcNAc(b1-2)Man(a1-3)[Fuc(a1-2)[Gal(a1-3)]Gal(b1-4)GlcNAc(b1-2)Man(a1-6)]Man(b1-4)GlcNAc(b1-4)[Fuc(a1-6)]GlcNAc
# Summary of the method: as §1
# [25] = target: Fuc(a1-2)[Gal(a1-3)]Gal(b1-4)GlcNAc(b1-3)GalNAc
# Summary of the method: as §1
# [26] = target: Fuc(a1-2)[Gal(a1-3)]Gal(b1-4)GlcNAc(b1-3)[Fuc(a1-2)[Gal(a1-3)]Gal(b1-4)GlcNAc(b1-6)]GalNAc
# Summary of the method: as §1
# [27] = target: Fuc(a1-2)[Gal(a1-3)]Gal(b1-4)GlcNAc(b1-6)GalNAc
# Summary of the method: as §1
# [28] = target: Fuc(a1-2)[Gal(a1-3)]Gal(b1-4)[Fuc(a1-3)]Glc
# Summary of the method: as §1
# [29] = target: Fuc(a1-2)[Gal(a1-3)]Gal(b1-4)[Fuc(a1-3)]GlcNAc
# Summary of the method: as §1
# [30] = target: Fuc(a1-2)[Gal(a1-3)]Gal(b1-4)[Fuc(a1-3)]GlcNAc(b1-3)GalNAc
# Summary of the method: as §1
# [31] = target: Fuc(a1-2)[Gal(a1-4)]Gal(b1-4)GlcNAc
# Summary of the method: as §1
# [32] = target: Fuc(a1-2)[GalNAc(a1-3)]Gal
# Summary of the method: as §1
# [33] = target: Fuc(a1-2)[GalNAc(a1-3)]Gal(b1-3)GalNAc(a1-3)[Fuc(a1-2)]Gal(b1-4)GlcNAc
# Summary of the method: as §1
# [34] = target: Fuc(a1-2)[GalNAc(a1-3)]Gal(b1-3)GalNAc(b1-3)Gal(a1-4)Gal(b1-4)Glc
# Summary of the method: as §1
# [35] = target: Fuc(a1-2)[GalNAc(a1-3)]Gal(b1-3)GlcNAc
# Summary of the method: as §1
# [36] = target: Fuc(a1-2)[GalNAc(a1-3)]Gal(b1-3)GlcNAc(b1-2)Man(a1-3)[Fuc(a1-2)[GalNAc(a1-3)]Gal(b1-3)GlcNAc(b1-2)Man(a1-6)]Man(b1-4)GlcNAc(b1-4)GlcNAc
# Summary of the method: as §1
# [37] = target: Fuc(a1-2)[GalNAc(a1-3)]Gal(b1-3)GlcNAc(b1-2)Man(a1-3)[Fuc(a1-2)[GalNAc(a1-3)]Gal(b1-3)GlcNAc(b1-2)Man(a1-6)]Man(b1-4)GlcNAc(b1-4)[Fuc(a1-6)]GlcNAc
# Summary of the method: as §1
# [38] = target: Fuc(a1-2)[GalNAc(a1-3)]Gal(b1-3)GlcNAc(b1-3)GalNAc
# Summary of the method: as §1
binder,measurement,setting,value
B1,glycan array binding signal (z-score),[1],0.134
same,glycan array binding signal (z-score),[2],-0.095
same,glycan array binding signal (z-score),[3],-0.47
same,glycan array binding signal (z-score),[4],-0.252
same,glycan array binding signal (z-score),[5],-0.285
same,glycan array binding signal (z-score),[6],-0.571
same,glycan array binding signal (z-score),[7],2.21
same,glycan array binding signal (z-score),[8],-0.471
same,glycan array binding signal (z-score),[9],-0.05
same,glycan array binding signal (z-score),[10],-0.301
same,glycan array binding signal (z-score),[11],2.41
same,glycan array binding signal (z-score),[12],0.713
same,glycan array binding signal (z-score),[13],-0.5
same,glycan array binding signal (z-score),[14],1.64
same,glycan array binding signal (z-score),[15],-0.191
same,glycan array binding signal (z-score),[16],-0.273
same,glycan array binding signal (z-score),[17],0.055
same,glycan array binding signal (z-score),[18],-0.472
same,glycan array binding signal (z-score),[19],0.623
same,glycan array binding signal (z-score),[20],-0.483
same,glycan array binding signal (z-score),[21],2.52
same,glycan array binding signal (z-score),[22],-0.169
same,glycan array binding signal (z-score),[23],-0.49
same,glycan array binding signal (z-score),[24],0.284
same,glycan array binding signal (z-score),[25],-0.32
same,glycan array binding signal (z-score),[26],-0.58
same,glycan array binding signal (z-score),[27],0.176
same,glycan array binding signal (z-score),[28],-0.527
same,glycan array binding signal (z-score),[29],0.754
same,glycan array binding signal (z-score),[30],0.256
same,glycan array binding signal (z-score),[31],-0.594
same,glycan array binding signal (z-score),[32],-0.293
same,glycan array binding signal (z-score),[33],-0.621
same,glycan array binding signal (z-score),[34],-0.583
same,glycan array binding signal (z-score),[35],-0.482
same,glycan array binding signal (z-score),[36],-0.485
same,glycan array binding signal (z-score),[37],-0.533
same,glycan array binding signal (z-score),[38],0.59
